In ChEMBL document CHEMBL2150867, “Comparative study of the affinity and metabolism of type I and type II binding quinoline carboxamide analogues by cytochrome P450 3A4” (J Med Chem, 2012):

Experiments:
Type in all cases: ADME
[1] = substrate: CN(C)c1ccc(NC(=O)c2cc(-c3ccccc3)nc3ccccc23)cc1; test: (§1) Activity at recombinant CYP3A4 NF-14 expressed in Escherichia coli after 5 mins by HPLC based LC/MS analysis
[2] = substrate: CN(C)c1ccc(NC(=O)c2cc(-c3ccccn3)nc3ccccc23)cc1; test: as §1
[3] = substrate: CN(C)c1ccc(NC(=O)c2cc(-c3ccncc3)nc3ccccc23)cc1; test: as §1
[4] = substrate: CN(C)c1ccc(NC(=O)c2cc(-c3ccncn3)nc3ccccc23)cc1; test: as §1
[5] = substrate: CN(C)c1ccc(NC(=O)c2cc(-c3cnccn3)nc3ccccc23)cc1; test: as §1
[6] = substrate: COc1ccc(NC(=O)c2cc(-c3ccccn3)nc3ccccc23)cc1; test: as §1
[7] = substrate: COc1ccc(NC(=O)c2cc(-c3ccncc3)nc3ccccc23)cc1; test: as §1
[8] = substrate: COc1ccc(NC(=O)c2cc(-c3ccncn3)nc3ccccc23)cc1; test: as §1
[9] = substrate: COc1ccc(NC(=O)c2cc(-c3cnccn3)nc3ccccc23)cc1; test: as §1
[10] = substrate: Cc1ccc(NC(=O)c2cc(-c3ccccc3)nc3ccccc23)cc1; test: as §1
[11] = substrate: Cc1ccc(NC(=O)c2cc(-c3ccccn3)nc3ccccc23)cc1; test: as §1
[12] = substrate: Cc1ccc(NC(=O)c2cc(-c3ccncc3)nc3ccccc23)cc1; test: as §1
[13] = substrate: Cc1ccc(NC(=O)c2cc(-c3ccncn3)nc3ccccc23)cc1; test: as §1
[14] = substrate: Cc1ccc(NC(=O)c2cc(-c3cnccn3)nc3ccccc23)cc1; test: as §1
[15] = substrate: O=C(Nc1ccccc1)c1cc(-c2ccccc2)nc2ccccc12; test: as §1
[16] = substrate: O=C(Nc1ccccc1)c1cc(-c2ccccn2)nc2ccccc12; test: as §1
[17] = substrate: O=C(Nc1ccccc1)c1cc(-c2ccncc2)nc2ccccc12; test: as §1
[18] = substrate: O=C(Nc1ccccc1)c1cc(-c2ccncn2)nc2ccccc12; test: as §1
[19] = substrate: O=C(Nc1ccccc1)c1cc(-c2cnccn2)nc2ccccc12; test: as §1
[20] = substrate: CN(C)c1ccc(NC(=O)c2cc(-c3ccncc3)nc3ccccc23)cc1; test: Metabolic stability of the compound assessed as CYP3A4 NF-14-mediated N-demethylation
[21] = substrate: Cc1ccc(NC(=O)c2cc(-c3ccccc3)nc3ccccc23)cc1; test: (§2) Metabolic stability of the compound assessed as CYP3A4 NF-14-mediated aromatic hydroxylation at ring-B
[22] = substrate: O=C(Nc1ccccc1)c1cc(-c2ccccc2)nc2ccccc12; test: as §2
[23] = substrate: COc1ccc(NC(=O)c2cc(-c3ccncc3)nc3ccccc23)cc1; test: Metabolic stability of the compound assessed as CYP3A4 NF-14-mediated O-demethylation
[24] = substrate: Cc1ccc(NC(=O)c2cc(-c3ccncc3)nc3ccccc23)cc1; test: (§3) Metabolic stability of the compound assessed as CYP3A4 NF-14-mediated aromatic hydroxylation at ring-A
[25] = substrate: O=C(Nc1ccccc1)c1cc(-c2ccccc2)nc2ccccc12; test: as §3
[26] = substrate: O=C(Nc1ccccc1)c1cc(-c2ccncc2)nc2ccccc12; test: as §3
[27] = substrate: Cc1ccc(NC(=O)c2cc(-c3ccccc3)nc3ccccc23)cc1; test: (§4) Metabolic stability of the compound assessed as CYP3A4 NF-14-mediated benzylic hydroxylation
[28] = substrate: Cc1ccc(NC(=O)c2cc(-c3ccncc3)nc3ccccc23)cc1; test: as §4
[29] = substrate: O=C(Nc1ccccc1)c1cc(-c2ccncc2)nc2ccccc12; test: Metabolic stability of the compound assessed as CYP3A4 NF-14-mediated p-hydroxylation at ring-A

B1: Cytochrome P450 3A4 (Homo sapiens) (protein)
chain: MALIPDLAMETWLLLAVSLVLLYLYGTHSHGLFKKLGIPGPTPLPFLGNILSYHKGFCMFDMECHKKYGKVWGFYDGQQPVLAITDPDMIKTVLVKECYSVFTNRRPFGPVGFMKSAISIAEDEEWKRLRSLLSPTFTSGKLKEMVPIIAQYGDVLVRNLRREAETGKPVTLKDVFGAYSMDVITSTSFGVNIDSLNNPQDPFVENTKKLLRFDFLDPFFLSITVFPFLIPILEVLNICVFPREVTNFLRKSVKRMKESRLEDTQKHRVDFLQLMIDSQNSKETESHKALSDLELVAQSIIFIFAGYETTSSVLSFIMYELATHPDVQQKLQEEIDAVLPNKAPPTYDTVLQMEYLDMVVNETLRLFPIAMRLERVCKKDVEINGMFIPKGVVVMIPSYALHRDPKYWTEPEKFLPERFSKKNKDNIDPYIYTPFGSGPRNCIGMRFALMNMKLALIRVLQNFSFKPCKETQIPLKLSLGGLLQPEKPVVLKVESRDGTVSGA
[1]
  Km: 2.9 µM
  kcat: 0.465 s⁻¹
[2]
  Km: 10.5 µM
  kcat: 0.175 s⁻¹
[3]
  Km: 1.03 µM
  kcat: 0.218 s⁻¹
[4]
  Km: 2.8 µM
  kcat: 0.16 s⁻¹
[5]
  Km: 11.1 µM
  kcat: 0.513 s⁻¹
[6]
  Km: 2.6 µM
  kcat: 0.095 s⁻¹
[7]
  Km: 0.7 µM
[8]
  Km: 2.6 µM
  kcat: 0.145 s⁻¹
[9]
  Km: 1.6 µM
  kcat: 0.0893 s⁻¹
[10]
  Km: 12 µM
  kcat: 0.683 s⁻¹
[11]
  Km: 13 µM
  kcat: 0.623 s⁻¹
[12]
  Km: 0.76 µM
  kcat: 0.123 s⁻¹
[13]
  Km: 3.2 µM
  kcat: 0.213 s⁻¹
[14]
  Km: 8 µM
  kcat: 0.433 s⁻¹
[15]
  Km: 6.5 µM
  kcat: 0.138 s⁻¹
[16]
  Km: 7.1 µM
  kcat: 0.158 s⁻¹
[17]
  Km: 1.13 µM
  kcat: 0.228 s⁻¹
[18]
  Km: 3.3 µM
  kcat: 0.177 s⁻¹
[19]
  Km: 3.6 µM
  kcat: 0.148 s⁻¹
[20]
  Km: 1.3 µM
[21]
  Km: 14.4 µM
  kcat: 0.0967 s⁻¹
[22]
  Km: 8.9 µM
  kcat: 0.0617 s⁻¹
[23]
  Km: 0.8 µM
  kcat: 0.03 s⁻¹
[24]
  Km: 0.72 µM
  kcat: 0.0228 s⁻¹
[25]
  Km: 5.3 µM
  kcat: 0.0783 s⁻¹
[26]
  Km: 1.24 µM
  kcat: 0.0983 s⁻¹
[27]
  Km: 11.3 µM
  kcat: 0.58 s⁻¹
[28]
  Km: 0.77 µM
  kcat: 0.1 s⁻¹
[29]
  Km: 1.07 µM
  kcat: 0.13 s⁻¹
